The RNAGym collection of RNA variant scans (doi:10.7554/elife.90254)
Read counts are not given, so values of variants with three or more changes are uncertain.

B1: LINE1-full (parent)
chain: UACGUAGGUGGUUUUCCCCUGAUAGUGCUAAGGGGGCCUGGAAGUUUGGACUGGGCAGAGCUCAACACAGCGUGGCAAAGUGGCUGUGGCUAGACUGCCUCUCUGGAUUCCUCGUCACUCAGCAGGGCAUCUCUGAGAGAAAUGCC

Variants of: B1
Assay: self-cleavage, relative activity (ratio to wild type); higher = more cleavage; in vitro, sequencing; the parent is a self-cleaving ribozyme
A6U C28A C66G A79G A141G gave a self-cleavage of 0.06.
A22G A59G U112C A142G showed a self-cleavage of 0.22.
G4A U14C U29C U46C A78U showed a self-cleavage of 0.59.
G75U A136G U143C showed a self-cleavage of 0.83.
G48U C103U A124U A136U gave a self-cleavage of 0.92.
Work on A22G A65G A67U U100C yielded a self-cleavage of 0.
Variant A65U A79G A107G A124G has a self-cleavage of 0.21.
A64G A69U U115C showed a self-cleavage of 0.09.
U14C U26C A42G G125A showed a self-cleavage of 1.23.
Variant U39C U46C U143G has a self-cleavage of 2.04.
U15C C71A U85C A117U showed a self-cleavage of 0.1.
Work on U13G U109C U130C yielded a self-cleavage of 0.
Variant A42G U104C U132C has a self-cleavage of 1.31.
Variant U39A G93C U108C has a self-cleavage of 0.07.
In the case of A50U A77U U109C A141G, the self-cleavage is reported as 0.88.
A69U A92G U100C A107G showed a self-cleavage of 0.
C19U A31U U39C showed a self-cleavage of 0.64.
In the case of U47C A57U A67G A129U, the self-cleavage is reported as 0.1.
Work on U9C A69G U132C A142G yielded a self-cleavage of 0.19.
Work on U47G A92G U134A yielded a self-cleavage of 0.1.
In the case of U5A A50U A138G, the self-cleavage is reported as 0.53.
In the case of U12C U20G A138G, the self-cleavage is reported as 1.08.
Work on U39G A69G G70A A78G yielded a self-cleavage of 0.09.
A67C G74U U81C G105A A121U U132C A141G gave a self-cleavage of 0.28.
With U12C U45A U96A A140G the self-cleavage was 0.03.
A59U G80A U100C showed a self-cleavage of 2.17.
In the case of U14C A57U U130C U132A, the self-cleavage is reported as 0.18.
With G93C U96C U100C the self-cleavage was 0.04.
In the case of U5C A78G C84U U119C U134A, the self-cleavage is reported as 0.46.
C99A U104C U130C showed a self-cleavage of 0.28.
For G32A A117U A140G, the self-cleavage was 2.06.
Variant U13A U14G U20C C37U U45C A65G U81A U115A has a self-cleavage of 0.
For U39C U91A A92G, the self-cleavage was 0.08.
In the case of U20A A22G U130A, the self-cleavage is reported as 1.53.
G33U U46C U130C gave a self-cleavage of 1.62.
With G32A A78G U96C the self-cleavage was 0.16.
In the case of A64G U102A U108C, the self-cleavage is reported as 0.97.
Work on U62C G75A U115A yielded a self-cleavage of 0.04.
For U12C A24G U26C, the self-cleavage was 1.21.
In the case of U23A U45G U87A U132C U134A, the self-cleavage is reported as 0.07.
G7A C16U U130C gave a self-cleavage of 0.91.
For G32A G97A C110U G127C U132C, the self-cleavage was 0.27.
For A65G U100C A107G, the self-cleavage was 0.
Variant C17A U23A A50G A121U A136U has a self-cleavage of 1.53.
For A2G U112A A129G, the self-cleavage was 0.51.
With G82A U87A C145G the self-cleavage was 0.13.
For A6G A77G C113U, the self-cleavage was 0.7.
Work on A79G U115C U143C yielded a self-cleavage of 1.2.
U5C U14C U52C U81C A121U showed a self-cleavage of 0.92.
Variant C3A U13C U85C has a self-cleavage of 0.22.
For U81C U102C U108A A121G, the self-cleavage was 0.
A31U U39G A42G showed a self-cleavage of 0.74.
U14C U85A U102A U108C showed a self-cleavage of 0.
Variant U13A U15C G58A U96C has a self-cleavage of 0.14.
Variant U15C U100C C146G has a self-cleavage of 0.68.
For U46C G139U A141C, the self-cleavage was 0.85.
Variant U45C C56U A136U has a self-cleavage of 0.15.
Variant U14C A59G G122U has a self-cleavage of 0.
A67U U108C A129U gave a self-cleavage of 0.19.
For A42G A67G G74U, the self-cleavage was 0.38.
For U15C U39A C56U A138G, the self-cleavage was 0.17.
Variant A57G G75C A78G A117C has a self-cleavage of 0.
U26C U52A A77G U91C A138U showed a self-cleavage of 1.08.
For U20A U26C G53U A57G, the self-cleavage was 1.04.
U15C U47A A50G A92G C95A showed a self-cleavage of 0.04.
Work on G7A G8U U12G A30G A57U A141G yielded a self-cleavage of 0.21.
For U14C A30U C98A A142G, the self-cleavage was 0.14.
U13C U45C A50U showed a self-cleavage of 0.78.
U12C A31U A57U U62C A129G showed a self-cleavage of 0.
Work on U9A G60A A77U U100A U104C yielded a self-cleavage of 0.05.
For G25A A42G U85A, the self-cleavage was 0.3.
U14C U20C C71A A124G showed a self-cleavage of 0.13.
U9A U62C A136G showed a self-cleavage of 0.12.
In the case of U13G C37G A57G A67G C98U U109C A117U, the self-cleavage is reported as 0.
Variant U47A A64U C128A has a self-cleavage of 0.15.
With C90A U115C A121G A138U the self-cleavage was 0.01.
Variant U26A U45C U73C has a self-cleavage of 0.84.
G36C U47C A65G C71U A79G U85C C120U showed a self-cleavage of 0.05.
A6G U12C U39A showed a self-cleavage of 0.96.
Variant U13C U112C A124G A142G has a self-cleavage of 0.77.
C38A A77G U96C U130C showed a self-cleavage of 0.09.
With G7A U26C A59U U81C the self-cleavage was 0.
U62C A64U A79G U119G showed a self-cleavage of 0.16.
Work on U39A A77G A79G U85C yielded a self-cleavage of 0.35.
U39C A92G U134C A140U showed a self-cleavage of 0.
G53A U109C A121G showed a self-cleavage of 0.73.
Work on A94G A124G A141G yielded a self-cleavage of 0.4.
With A59G A69U U143C the self-cleavage was 0.04.
With U100C C131A U134A the self-cleavage was 1.4.
U14C G53U U143C showed a self-cleavage of 1.47.
A77U A94U A121U A136G showed a self-cleavage of 0.38.
For C3U A24G C56U, the self-cleavage was 0.38.
For U115A U134A G139A, the self-cleavage was 1.36.
Variant A94U A117G U130C has a self-cleavage of 0.38.
For U1C G33A A57U, the self-cleavage was 0.14.
C68U A107G U112C gave a self-cleavage of 0.39.
A92C A138G A141G showed a self-cleavage of 0.18.
Work on U46G U96C A141G yielded a self-cleavage of 0.05.
In the case of A2G U29C C38U U46C A59U, the self-cleavage is reported as 1.64.
In the case of U14C C84U U132C, the self-cleavage is reported as 0.15.
Work on A22G A65G G74U U85G U96C yielded a self-cleavage of 0.77.
Work on A2G A24G U134C yielded a self-cleavage of 1.07.
Variant U12C U26A C111U U134G A140G has a self-cleavage of 1.09.
Work on U9C U91C A92U A141G yielded a self-cleavage of 1.06.
U20C A31G A64U U87C U119C gave a self-cleavage of 0.
Work on A50G G53A A77G A140U yielded a self-cleavage of 1.39.
Work on U62C C118U A124G A129G yielded a self-cleavage of 0.
With U9C G35A C66A U112C the self-cleavage was 0.06.
In the case of U12G A78G A94G, the self-cleavage is reported as 0.
With A2G U5G A30U the self-cleavage was 0.92.
U12C G27A G35C A79G gave a self-cleavage of 0.82.
U39A U52C G89A showed a self-cleavage of 0.04.
In the case of U47A U62C A92G A121U, the self-cleavage is reported as 0.02.
U20C U52C A140G gave a self-cleavage of 1.53.
In the case of U12A G40A U85C U87C, the self-cleavage is reported as 0.05.
Work on G36A A67U A140G yielded a self-cleavage of 0.07.
For A24G U96C U100C, the self-cleavage was 1.41.
For U9C G83A U119C, the self-cleavage was 1.46.
Variant U39C A78U A124G has a self-cleavage of 0.42.
For U9G G105U A129G, the self-cleavage was 1.14.
For U20C U73C U102A U108C A142G, the self-cleavage was 0.
U9A U13C C18U G49A gave a self-cleavage of 0.29.
For A22G U39C U46A G49A C51U A79G, the self-cleavage was 1.38.
A64G A78G A129G U143C gave a self-cleavage of 0.51.
Work on A65G A77G G114A A141G U143C yielded a self-cleavage of 0.06.
For U15C U20C C116A A141G, the self-cleavage was 1.45.
For U13C C19A C37G U62C U108C, the self-cleavage was 0.
G8U U112C A141G showed a self-cleavage of 1.72.
A6G A65G C90G U115C A138G gave a self-cleavage of 0.
With A77G A129U U134C U143C the self-cleavage was 0.48.
G35A C90U U102C U132C A142G showed a self-cleavage of 0.03.
A57U U62C U85C C123U showed a self-cleavage of 0.1.
U62C U73C A121C gave a self-cleavage of 0.
Work on A43G A64U A65U G97A U134C yielded a self-cleavage of 0.06.
With U13A U62A U91C A94G U119A the self-cleavage was 0.
For A30G A59G U87A, the self-cleavage was 0.08.
For G8A A69U C111U A129G, the self-cleavage was 0.1.
Variant U47A A78G U132A has a self-cleavage of 1.17.
U1C C71U U115C gave a self-cleavage of 0.68.
With A6U U132C U134A A136U the self-cleavage was 0.
With U9C U15C A92U U130C the self-cleavage was 0.41.
A64U A67G C145G showed a self-cleavage of 0.19.
For U12C A69G A129U, the self-cleavage was 0.68.
Work on A24G G25U U47C U115C yielded a self-cleavage of 2.55.
A2G A43G C145U showed a self-cleavage of 0.
Variant G4A G32U U119C has a self-cleavage of 0.81.
A22G U45C G54A G122A C131U gave a self-cleavage of 0.48.
In the case of U91A A92G U108C, the self-cleavage is reported as 0.09.
Work on U47A A140G A141U yielded a self-cleavage of 0.77.
Work on U14C G93U C99U G106U yielded a self-cleavage of 0.04.
Work on G41A A57U U96C U104C U108C yielded a self-cleavage of 0.14.
U12A U14A U26A A65G U96A showed a self-cleavage of 0.22.
Variant U20C A59G U85G U91C U109A has a self-cleavage of 0.
U12C U20A A78G showed a self-cleavage of 1.24.
For U12G U47A U109C A142G, the self-cleavage was 1.66.
In the case of U13C A30G C84G A117U, the self-cleavage is reported as 0.22.
Work on C61U G126A U134C A142G yielded a self-cleavage of 0.04.
U9G U14C A78U A138G gave a self-cleavage of 1.77.
With U15C A92G A140G the self-cleavage was 0.05.
A42G A65U A67U G72A A79C U143C showed a self-cleavage of 0.11.
Work on U9C U100A U115C yielded a self-cleavage of 1.29.
For U39C U81C C123A, the self-cleavage was 1.23.
In the case of U23A U115G U119C, the self-cleavage is reported as 2.4.
U12C U23C U87C U109A A121G A129U A136G showed a self-cleavage of 1.84.
With U14C A22G U62C the self-cleavage was 0.21.
Variant U14C U85A A107G has a self-cleavage of 0.04.
With U39C A50G U96C the self-cleavage was 0.34.
